From patent US20220411536A1 (NUMAB THERAPEUTICS, published 2022) come the findings set out here.

Like-named read-outs stand apart in the source and are kept apart here.

Experiment [1] has as its target T1, Fc-tagged human PD-L1 extracellular domain (SinoBiological, cat. 10084-H02H) (human, UniProt Q9NZQ7 partial chain).
T1 construct: extracellular domain; also called hPD-L1; not shown: Fc tag of the bought protein
Briefly: SPR, captured Fc-PD-L1 ECD, steady state.

In experiment [2] the target is T2, recombinant human CD3E ECD (SinoBiological, cat. 10977-H08H) (human, UniProt P07766 23-126).
T2 construct: extracellular domain; bought protein; also called CD3s
T2 sequence (P07766 23-126): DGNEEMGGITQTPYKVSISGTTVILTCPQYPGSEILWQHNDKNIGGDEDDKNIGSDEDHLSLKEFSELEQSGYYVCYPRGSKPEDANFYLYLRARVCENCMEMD
Briefly: SPR, immobilised CD3e ECD, two-state model (ka1).

Experiment [3] deals with T2, recombinant human CD3E ECD …. Briefly: SPR, immobilised CD3e ECD, two-state model.
The target is the same in experiment [4]. Kind of experiment: SPR, immobilised CD3e ECD, two-state model (kd1). (SPR reads the build-up and loss of mass on a sensor chip optically.)
For experiment [5], the target named is CD3e on Jurkat PD-1 NFAT reporter T cells or on T cells of human PBMCs (human, UniProt P07766). Kind of experiment: cell-based or functional assay.
In experiment [6] the target is T3, recombinant human IL-23R (custom-made by Trenzyme) (human, UniProt Q5VWK5 24-355).
T3 sequence (looked up): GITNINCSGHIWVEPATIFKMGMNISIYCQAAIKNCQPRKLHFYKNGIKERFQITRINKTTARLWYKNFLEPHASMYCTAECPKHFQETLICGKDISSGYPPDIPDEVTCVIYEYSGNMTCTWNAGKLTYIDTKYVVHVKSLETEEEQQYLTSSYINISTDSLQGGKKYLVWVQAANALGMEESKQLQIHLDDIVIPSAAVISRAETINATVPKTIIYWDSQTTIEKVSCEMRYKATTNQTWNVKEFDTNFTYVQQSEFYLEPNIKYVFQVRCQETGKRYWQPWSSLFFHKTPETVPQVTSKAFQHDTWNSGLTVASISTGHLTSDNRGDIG
Briefly: SPR, immobilised IL-23R.

Experiment [7] addresses T4, human PD-L1 expressed on cells (CHO-PD-L1, HCC1954, HCC827) (human, UniProt Q9NZQ7).
T4 construct: whole, on cells; also called hPD-L1; PD-L1 expressing cells
Briefly: flow cytometry, inhibition of biotinylated PD-1 binding to HCC1954 cells. In general terms: Flow cytometry measures light scatter and fluorescence of single cells or particles in a stream.

The target of experiment [8] is T4, human PD-L1 expressed on cells …. Briefly: flow cytometry with human SA, inhibition of PD-1 binding to HCC827 cells.
In another experiment the target is T5, human serum albumin (human, UniProt P02768).
T5 construct: also called HSA; human SA
Briefly: SPR, immobilised HSA, pH 5.5.

In experiment [9] the target is T4, human PD-L1 expressed on cells …. Briefly: flow cytometry with human SA, inhibition of PD-1 binding to HCC1954 cells.
The target in experiment [10] is T1, Fc-tagged human PD-L1 extracellular …. Briefly: SPR, captured Fc-PD-L1 ECD, steady state. The source holds these as a separate data set.
For a further experiment, the target named is T6, mouse serum albumin (mouse, UniProt P07724 25-608).
T6 construct: also called MSA; mouse SA
Briefly: SPR, immobilised MSA, pH 5.5.

mouse serum albumin, sequence (P07724 25-608 limits assumed): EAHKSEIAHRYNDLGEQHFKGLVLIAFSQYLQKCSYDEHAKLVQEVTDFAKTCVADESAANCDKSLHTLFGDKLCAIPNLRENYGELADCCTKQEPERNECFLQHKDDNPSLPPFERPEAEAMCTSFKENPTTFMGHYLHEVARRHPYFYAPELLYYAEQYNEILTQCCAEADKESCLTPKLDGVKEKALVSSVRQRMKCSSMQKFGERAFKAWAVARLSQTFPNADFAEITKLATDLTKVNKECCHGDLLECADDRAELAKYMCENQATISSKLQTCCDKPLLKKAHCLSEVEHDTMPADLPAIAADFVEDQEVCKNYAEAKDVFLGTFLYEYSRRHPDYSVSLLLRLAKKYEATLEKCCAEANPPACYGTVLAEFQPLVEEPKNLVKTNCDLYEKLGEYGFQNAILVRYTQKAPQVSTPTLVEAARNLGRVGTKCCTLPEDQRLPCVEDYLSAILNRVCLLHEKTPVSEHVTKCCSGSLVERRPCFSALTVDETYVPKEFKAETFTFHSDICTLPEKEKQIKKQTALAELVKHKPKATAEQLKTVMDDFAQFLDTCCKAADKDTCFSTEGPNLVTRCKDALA

B1: PRO1547 (multispecific antibody)
chain 1: [not shown - about 100 residues]RTVAAPSVFIFPPDVVMTQSPSSLSASVGDRVTITCQASQIISSRSAWYQQKPGQPPKLLIYQASKLASGVPSRFSGSGSGTDFTLTISSLQPEDFATYYCQCTYIDSNFGAFGCGTKLTVLGTVAAPSVFIFPPSDEQLKSGTASVVCLLNNFYPREAKVQWKVDNALQSGNSQESVTEQDSKDSTYSLSSTLTLSKADYEKHKVYACEVTHQGLSSPVTKSFNRGECGGGGSGGGGSDIQMTQSPSSLSASVGDRVTITCQSSQSVFSNNYLAWFQQKPGQSPKRLIYSASTLASGVPSRFSGSGSGTDFTLTISSLQPEDFATYYCLGSYACSSADCYVFGTGTKVTVLGGGGGSGGGGSGGGGSGGGGSEVQLVESGGGLVQPGGSLRLSCAASGFSLSSYDMSWVRQAPGKGLAWIGASYASGPTYYASWAKGRFTISRDNSKNTVYLQMNSLRAEDTATYFCARGGWTGTSHSNIWGQGTLVTVSS
chain 2: [not shown - about 120 residues]ASTKGPSVFPLAPEVQLVESGGGLVQPGGSLRLSCAASGFSFSSSYWICWVRQAPGKCLEWVGCVFTGDGTTYYASWAKGRFTISRDNSKNTVYLQMNSLRAEDTATYFCARPVSVYYYGMDLWGQGTLVTVSSASTKGPSVFPLAPSSKSTSGGTAALGCLVKDYFPEPVTVSWNSGALTSGVHTFPAVLQSSGLYSLSSVVTVPSSSLGTQTYICNVNHKPSNTKVDKKVEPKSCGGGGSGGGGSIQMTQSPSSLSASVGDRVTITCQASQSINDYLAWYQQKPGKAPKLLIYKASTLASGVPSRFSGSGSGTDFTLTISSLQPEDFATYYCQAAYIITDIDNVFGTGTKVTVLGGGGGSGGGGSGGGGSGGGGSQVQLQESGPGLVKPSETLSLTCKVSGFSFSSGYDMCWIRQPPGKGLEWIGCVVAGSVDITYYASWAKGRVTISVDSSKNQFSLKLSSVTAADTAVYYCARKDAYSDAFNLWGQGTLVTVSS
The Kd is the equilibrium constant for the complex coming apart. The term kon denotes the second-order rate constant of association. Broadly, the koff is the first-order rate constant of dissociation. For orientation: IC50 means the midpoint of a concentration-inhibition curve. Low readings indicate inhibition by little substance, high ones a need for much substance. Molecule B1 came in with a Kd in experiment [1] of 916 nM. In addition, the kon in experiment [2] amounted to 197000 M⁻¹ s⁻¹. Moreover, in experiment [3], the KD1 amounted to 25.2 nM, the Kd was 14.5 nM and the kd2 worked out at 0.000819 s⁻¹. The koff in experiment [4] stood at 0.00497 s⁻¹. Further, in experiment [5], the “IC50, NFAT reporter, CHO-PD-L1 (A2 clone) cells” value stood at 142 nM; the “IC50, NFAT reporter, HCC1954 cells” value came out at 0.779 nM; the “rel. max. activation vs PRO1497, NFAT reporter, HCC1954 cells” value came to 106%; the “rel. max. activation vs PRO1497 on HCC1954, NFAT reporter, CHO-PD-L1 (A2 clone) cells” value came to 19%. In addition, the binding result in [6] was “no binding (tested: 90 nM highest concentration)”. This molecule also had an IC50 in [7] of 0.522 µg/mL.

B2: PRO1679 (multispecific antibody)
chain: DIQMTQSPSSLSASVGDRVTITCRASQDVNTAVAWYQQKPGKAPKLLIYSASFLYSGVPSRFSGSRSGTDFTLTISSLQPEDFATYYCQQHYTTPPTFGCGTKLTVLGGGGGSQVQLQESGPGLVKPSETLSLTCKVSGFSFSSGYDMCWIRQPPGKGLEWIGCVVAGSVDITYYASWAKGRVTISVDSSKNQFSLKLSSVTAADTAVYYCARKDAYSDAFNLWGQGTLVTVSSGGGGSGGGGSGGGGSGGGGSIQMTQSPSSLSASVGDRVTITCQASQSINDYLAWYQQKPGKAPKLLIYKASTLASGVPSRFSGSGSGTDFTLTISSLQPEDFATYYCQAAYIITDIDNVFGTGTKVTVLGGGGGS[not shown - about 120 residues]GGGGSGGGGSVVMTQSPSSLSASVGDRVTITCQASQIISSRSAWYQQKPGQPPKLLIYQASKLASGVPSRFSGSGSGTDFTLTISSLQPEDFATYYCQCTYIDSNFGAFGGGTKLTVLGGGGGSGGGGSGGGGSGGGGSEVQLVESGGGLVQPGGSLRLSCAASGFSFSSSYWICWVRQAPGKGLEWVGCVFTGDGTTYYASWAKGRFTISRDNSKNTVYLQMNSLRAEDTATYFCARPVSVYYYGMDLWGQGTLVTVSS
In experiment [8], B2 gave an IC50 of 119 µg/mL. In the experiment with human serum albumin, binding was characterised by a dissociation constant (Kd) of 3.89 nM, the koff was 0.000733 s⁻¹ and the on-rate constant (kon) turned out to be 188000 M⁻¹ s⁻¹. For the same molecule, the IC50 in experiment [9] amounted to 0.652 µg/mL. The molecule further came in with a dissociation constant (Kd) in experiment [10] of 122 nM.

B3: PRO1681 (multispecific antibody)
chain: DIQMTQSPSSLSASVGDRVTITCRASQDVNTAVAWYQQKPGKAPKLLIYSASFLYSGVPSRFSGSRSGTDFTLTISSLQPEDFATYYCQQHYTTPPTFGCGTKLTVLGGGGGSQVQLQESGPGLVKPSETLSLTCKVSGFSFSSGYDMCWIRQPPGKGLEWIGCVVAGSVDITYYASWAKGRVTISVDSSKNQFSLKLSSVTAADTAVYYCARKDAASDAFNLWGQGTLVTVSSGGGGSGGGGSGGGGSGGGGSIQMTQSPSSLSASVGDRVTITCQASQSINDYLAWYQQKPGKAPKLLIYKASTLASGVPSRFSGSGSGTDFTLTISSLQPEDFATYYCQAGYIITDIDNVFGTGTKVTVLGGGGGS[not shown - about 120 residues]GGGGSGGGGSVVMTQSPSSLSASVGDRVTITCQASQIISSRSAWYQQKPGQPPKLLIYQASKLASGVPSRFSGSGSGTDFTLTISSLQPEDFATYYCQCTYIDSNFGAFGGGTKLTVLGGGGGSGGGGSGGGGSGGGGSEVQLVESGGGLVQPGGSLRLSCAASGFSFSSSYWICWVRQAPGKGLEWVGCVFTGDGTTYYASWAKGRFTISRDNSKNTVYLQMNSLRAEDTATYFCARPVSVYYYGMDLWGQGTLVTVSS
On to B3, for which, in experiment [8], the half-maximal inhibitory concentration (IC50) amounted to 1520 µg/mL. In the experiment with human serum albumin, the affinity, expressed as Kd, was 3.85 nM; the off-rate constant (koff) was 0.000737 s⁻¹; the association rate constant (kon) worked out at 191000 M⁻¹ s⁻¹. Moreover, the 50% inhibitory concentration (IC50) in experiment [9] worked out at 2.01 µg/mL.

B4: PRO1678 (multispecific antibody)
chain: DIQMTQSPSSLSASVGDRVTITCQASQSINDYLAWYQQKPGKAPKLLIYKASTLASGVPSRFSGSGSGTDFTLTISSLQPEDFATYYCQAAYIITDIDNVFGTGTKVTVLGGGGGS[not shown - about 120 residues]GGGGSGGGGSGGGGSGGGGSIQMTQSPSSLSASVGDRVTITCRASQDVNTAVAWYQQKPGKAPKLLIYSASFLYSGVPSRFSGSRSGTDFTLTISSLQPEDFATYYCQQHYTTPPTFGCGTKLTVLGGGGGSQVQLQESGPGLVKPSETLSLTCKVSGFSFSSGYDMCWIRQPPGKGLEWIGCVVAGSVDITYYASWAKGRVTISVDSSKNQFSLKLSSVTAADTAVYYCARKDAYSDAFNLWGQGTLVTVSSGGGGSGGGGSVVMTQSPSSLSASVGDRVTITCQASQIISSRSAWYQQKPGQPPKLLIYQASKLASGVPSRFSGSGSGTDFTLTISSLQPEDFATYYCQCTYIDSNFGAFGGGTKLTVLGGGGGSGGGGSGGGGSGGGGSEVQLVESGGGLVQPGGSLRLSCAASGFSFSSSYWICWVRQAPGKGLEWVGCVFTGDGTTYYASWAKGRFTISRDNSKNTVYLQMNSLRAEDTATYFCARPVSVYYYGMDLWGQGTLVTVSS
notes: also called scMATCH3
In the case of B4, the IC50 is 43.5 µg/mL in [8] and 0.428 µg/mL in experiment [9]. In addition, the Kd with human serum albumin is 3.45 nM; in the experiment with mouse serum albumin it was 37.8 nM; in [10], 156 nM. Further, the results for the koff in the experiment with human serum albumin and with mouse serum albumin were 0.000762 s⁻¹ and 0.00518 s⁻¹, respectively. The figures for the kon with human serum albumin and in the experiment with mouse serum albumin were 221000 M⁻¹ s⁻¹ and 137000 M⁻¹ s⁻¹, respectively.

B5: PRO1680 (multispecific antibody)
chain: DIQMTQSPSSLSASVGDRVTITCQASQSINDYLAWYQQKPGKAPKLLIYKASTLASGVPSRFSGSGSGTDFTLTISSLQPEDFATYYCQAGYIITDIDNVFGTGTKVTVLGGGGGS[not shown - about 120 residues]GGGGSGGGGSGGGGSGGGGSIQMTQSPSSLSASVGDRVTITCRASQDVNTAVAWYQQKPGKAPKLLIYSASFLYSGVPSRFSGSRSGTDFTLTISSLQPEDFATYYCQQHYTTPPTFGCGTKLTVLGGGGGSQVQLQESGPGLVKPSETLSLTCKVSGFSFSSGYDMCWIRQPPGKGLEWIGCVVAGSVDITYYASWAKGRVTISVDSSKNQFSLKLSSVTAADTAVYYCARKDAASDAFNLWGQGTLVTVSSGGGGSGGGGSVVMTQSPSSLSASVGDRVTITCQASQIISSRSAWYQQKPGQPPKLLIYQASKLASGVPSRFSGSGSGTDFTLTISSLQPEDFATYYCQCTYIDSNFGAFGGGTKLTVLGGGGGSGGGGSGGGGSGGGGSEVQLVESGGGLVQPGGSLRLSCAASGFSFSSSYWICWVRQAPGKGLEWVGCVFTGDGTTYYASWAKGRFTISRDNSKNTVYLQMNSLRAEDTATYFCARPVSVYYYGMDLWGQGTLVTVSS
In experiment [8], B5 came in with a half-maximal inhibitory concentration (IC50) of 2100 µg/mL. Moreover, in the experiment with human serum albumin, the koff came to 0.000732 s⁻¹ and the kon was found to be 188000 M⁻¹ s⁻¹. In experiment [9], this molecule returned an IC50 of 1.15 µg/mL.
